Over roughly 33,000 sequences, “E-score (-0.5 to 0.5)” has its median near -0.041; the highest 2% begin near 0.37. The list shows a part of the results.
The sequences below were run against T1, Ecm22 (UniProt Q05958) (assay: PBM E-score (8-mer binding enrichment) (E-score (-0.5 to 0.5)); higher = stronger / more preferred TF binding; most listed sequences are background and not binding sites). Conditions: protein concentration: 200 nM; construct: GST-full length.
T1 sequence: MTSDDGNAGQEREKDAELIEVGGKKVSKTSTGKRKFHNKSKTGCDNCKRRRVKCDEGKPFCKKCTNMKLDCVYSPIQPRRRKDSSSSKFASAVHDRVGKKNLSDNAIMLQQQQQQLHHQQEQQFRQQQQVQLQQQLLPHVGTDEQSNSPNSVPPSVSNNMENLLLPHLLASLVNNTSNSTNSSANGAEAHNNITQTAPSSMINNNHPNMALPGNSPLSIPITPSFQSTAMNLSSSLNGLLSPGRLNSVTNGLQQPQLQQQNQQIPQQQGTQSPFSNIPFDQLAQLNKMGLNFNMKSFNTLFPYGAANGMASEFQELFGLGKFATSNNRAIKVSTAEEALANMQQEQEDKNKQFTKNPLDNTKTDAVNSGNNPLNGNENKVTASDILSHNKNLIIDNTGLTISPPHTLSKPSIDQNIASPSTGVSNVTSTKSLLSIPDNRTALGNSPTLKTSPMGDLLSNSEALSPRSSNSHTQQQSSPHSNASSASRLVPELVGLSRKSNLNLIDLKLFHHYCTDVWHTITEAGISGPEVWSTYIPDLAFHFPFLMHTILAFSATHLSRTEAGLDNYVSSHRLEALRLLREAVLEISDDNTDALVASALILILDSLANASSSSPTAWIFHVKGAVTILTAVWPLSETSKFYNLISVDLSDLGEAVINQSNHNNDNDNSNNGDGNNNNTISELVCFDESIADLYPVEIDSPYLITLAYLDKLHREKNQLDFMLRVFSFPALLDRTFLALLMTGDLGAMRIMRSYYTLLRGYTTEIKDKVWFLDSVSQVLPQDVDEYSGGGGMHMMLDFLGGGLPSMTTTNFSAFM
Procedure: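 Universal 'all 10-mer' protein binding microarrays (Agilent AMADID 015681) probed with GST-tagged S. cerevisiae TFs (full-length or DBD) made by in vitro transcription/translation (PURExpress), about 100-200 nM. Bound TF was detected with fluorescent anti-GST. Each ungapped 8-mer (which stands for itself and its reverse complement) is scored by the PBM enrichment score (E-score), a modified Wilcoxon-Mann-Whitney statistic from -0.5 to +0.5, computed with the Universal PBM Analysis Suite. Scale: above 0.35 generally sequence-specific binding.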

Row | Sequence | PBM E-score
1 | AAATCTTA | 0.0399
2 | CTTTCGTC | 0.0061
3 | CTGACATA | -0.102
4 | ACTATTCG | 0.151
5 | CGGCACTA | -0.0606
6 | GATTGCAA | 0.00502
7 | ACAGTAGC | 0.0447
8 | AGATGCGC | 0.0221
9 | AGAGGTCC | -0.0819
10 | CTGAGAGC | -0.0232
11 | CGAACTAC | 0.12
12 | ACTATAAC | -0.0993
13 | GCCGACGA | 0.0279
14 | ACGTAGAC | 0.00036
15 | CGATTCGC | 0.221
16 | CGTTAAAA | 0.287
17 | CGGGTAAG | 0.123
18 | ACTATCCC | -0.227
19 | ACCCCCGG | -0.189
20 | GGAACACA | -0.0908
21 | AAGAGCGC | -0.0779
22 | CACTGCCC | -0.159
23 | AGGCGGCG | -0.0664
24 | CGGCCGTC | 0.0171
25 | CATCCGAA | 0.152

Row | Sequence | PBM E-score
26 | AAAGCGGA | -0.0774
27 | GCACCTCC | -0.271
28 | CTTGGAGC | -0.0888
29 | GCCGTATA | 0.463
30 | CATGGAGC | -0.193
31 | AGAGACCG | -0.0917
32 | ATTGTCAC | -0.0911
33 | GCCCAATA | 0.0557
34 | CCTAACCA | -0.0936
35 | GGGTAGCA | -0.0748
36 | TCACCAGA | -0.114
37 | GGTCGTTA | 0.339
38 | CCCCGCTA | 0.119
39 | GTGCCACA | -0.259
40 | ATGTTGCA | 0.0806
41 | AAAGGTCA | -0.144
42 | GGGACGAC | -0.0755
43 | AGCGACGA | 0.195
44 | TACCATAA | -0.0241
45 | TACAATAA | -0.0954
46 | CCGCGAGC | 0.0918
47 | GCGTTACC | 0.0263
48 | AATGTGCC | -0.234
49 | GGGAGACA | -0.222
50 | GTGTCGCA | 0.162

Row | Sequence | PBM E-score
51 | CCCGCGTC | 0.034
52 | TCCTTTAA | -0.113
53 | GAGTAGCC | -0.0661
54 | CGAGTGAC | 0.292
55 | ATATAATG | -0.0445
56 | ACTGTGGG | -0.221
57 | AGATTGCA | -0.151
58 | CCGGGCAA | -0.117
59 | CGTAGATA | 0.103
60 | GCGACACA | 0.113
61 | CACCAGTC | -0.0627
62 | ATCGTAGG | 0.144
63 | TACTCGAA | 0.187
64 | AAAGCATC | 0.0748
65 | AAGTAAGG | -0.0906
66 | AGTTCCCC | -0.0578
67 | AATCGACC | -0.0105
68 | ATGGGGAA | -0.0102
69 | GTGATCAC | -0.0665
70 | AGTGAAGC | -0.127
71 | AAGGGGGC | -0.169
72 | AGCTGAAC | -0.00484
73 | AAATCTGG | 0.11
74 | GGTAAACA | 0.129
75 | AACGGTAT | 0.166

Row | Sequence | PBM E-score
76 | CGCACAGC | 0.0507
77 | CGCGGATC | 0.00423
78 | AATGGGTA | 0.186
79 | GCCCCTCC | -0.0475
80 | CCCAGTAC | -0.0775
81 | CCTGCATA | -0.254
82 | AGGACTTA | -0.23
83 | GCCTTTAA | -0.198
84 | AATTCGGC | -0.141
85 | CGTCATAC | 0.227
86 | GAGAGAGA | 0.00674
87 | GCTTCGAA | 0.0639
88 | AGACAACT | -0.17
89 | CTGCGCGA | 0.0164
90 | ATATGTGG | -0.274
91 | CGATTAGC | 0.259
92 | AACGGATC | 0.234
93 | ATCATTCA | 0.0374
94 | CGCTAGAG | 0.00533
95 | CTTCAGGC | -0.272
96 | CAAGGGTG | -0.244
97 | GAGGTGTA | -0.0982
98 | CTACCGTC | -0.12
99 | CTAGAGAG | -0.2
100 | GTGTAAGA | -0.11

Row | Sequence | PBM E-score
101 | GGAACGAA | 0.489
102 | ACCCCTTA | -0.137
103 | CGGGTTAC | 0.231
104 | ACTTTGCT | -0.0924
105 | TAAGGTAA | 0.0729
106 | GCTGCAGC | -0.186
107 | GCGGATTA | 0.00231
108 | AGGAAGAA | -0.156
109 | AGCTTTAC | 0.111
110 | ACGGGGAC | 0.0581
111 | GAAAGAAC | -0.0474
112 | CGTTGACA | 0.139
113 | GCCCAGCA | -0.182
114 | CAGAGACG | -0.00646
115 | AGTGAGAG | -0.252
116 | ACTACCAA | 0.0258
117 | AGATAACC | -0.137
118 | ACCGCGGA | 0.0811
119 | ATCTTCCA | -0.199
120 | GCCTGTAA | -0.209
121 | ATATCTAC | 0.0491
122 | CGGTTGTC | 0.12
123 | GCGACTAA | 0.155
124 | ATTACCTA | -0.0935
125 | AGCTCGAC | 0.0368

Row | Sequence | PBM E-score
126 | CCCAGGCC | -0.178
127 | AGTTATAG | -0.238
128 | GCCAGAAC | -0.0164
129 | CTTGGCAC | -0.227
130 | ACGTTTGA | 0.157
131 | ATATAGCC | -0.00324
132 | CGGGTAGC | -0.0454
133 | CTTGGCCA | -0.316
134 | CACCAGCC | -0.0515
135 | CTTTGACA | -0.148
136 | ACGGATAC | 0.227
137 | TATAGCGA | 0.237
138 | GGGCCATA | -0.0499
139 | CTTCGCAA | 0.183
140 | TCTCTTAA | 0.118
141 | AAACATGA | -0.0336
142 | ACCGGTAG | -0.013
143 | GATGGGTA | 0.0221
144 | AAAGTGGC | -0.0493
145 | AATAATCG | 0.0721
146 | ATCAGGTC | 0.113
147 | GCTCATAA | 0.0224
148 | AGTGTCCC | -0.0455
149 | CCGTCCCA | -0.311
150 | ATGATAAT | 0.0227

Row | Sequence | PBM E-score
151 | ATGCTCGA | -0.103
152 | GGCCTGGA | -0.405
153 | CACAAGTC | -0.11
154 | CAAGCGTG | -0.087
155 | TCTATACA | -0.084
156 | GACTAAAC | -0.0495
157 | CTGTACTC | -0.0433
158 | CGACTGAA | 0.163
159 | ACCCCCCA | -0.296
160 | CGCTCCGA | 0.203
161 | ACAATGGA | -0.0436
162 | ACGCTTCC | -0.0671
163 | GAAAGATA | -0.0171
164 | GGTGGCCA | -0.312
165 | AATCCGAC | 0.104
166 | AGTGGGCG | -0.167
167 | CGTACTAA | 0.341
168 | GGTACCTA | -0.1
169 | CGATTAGA | 0.162
170 | CCCACAGA | -0.187
171 | GTGGTGGA | 0.0768
172 | CGGATAGA | 0.219

Reference: the supplement of paper PMC3334620
